# Data published in article PMC4336329 (PLoS ONE, 2015).
# In all, about 310,000 compounds went through this assay and about 2,200 (0.71%) showed an effect of 50% or more. Effects have a minus sign here. This is one part of the list.
# Target: human ether-à-go-go-related gene (hERG) potassium channel (human, UniProt Q12809)
# Assay: primary screen, population patch clamp on CHO cells stably expressing hERG
# human ether-à-go-go-related gene (hERG) potassium channel, sequence (Q12809 whole entry, looked up): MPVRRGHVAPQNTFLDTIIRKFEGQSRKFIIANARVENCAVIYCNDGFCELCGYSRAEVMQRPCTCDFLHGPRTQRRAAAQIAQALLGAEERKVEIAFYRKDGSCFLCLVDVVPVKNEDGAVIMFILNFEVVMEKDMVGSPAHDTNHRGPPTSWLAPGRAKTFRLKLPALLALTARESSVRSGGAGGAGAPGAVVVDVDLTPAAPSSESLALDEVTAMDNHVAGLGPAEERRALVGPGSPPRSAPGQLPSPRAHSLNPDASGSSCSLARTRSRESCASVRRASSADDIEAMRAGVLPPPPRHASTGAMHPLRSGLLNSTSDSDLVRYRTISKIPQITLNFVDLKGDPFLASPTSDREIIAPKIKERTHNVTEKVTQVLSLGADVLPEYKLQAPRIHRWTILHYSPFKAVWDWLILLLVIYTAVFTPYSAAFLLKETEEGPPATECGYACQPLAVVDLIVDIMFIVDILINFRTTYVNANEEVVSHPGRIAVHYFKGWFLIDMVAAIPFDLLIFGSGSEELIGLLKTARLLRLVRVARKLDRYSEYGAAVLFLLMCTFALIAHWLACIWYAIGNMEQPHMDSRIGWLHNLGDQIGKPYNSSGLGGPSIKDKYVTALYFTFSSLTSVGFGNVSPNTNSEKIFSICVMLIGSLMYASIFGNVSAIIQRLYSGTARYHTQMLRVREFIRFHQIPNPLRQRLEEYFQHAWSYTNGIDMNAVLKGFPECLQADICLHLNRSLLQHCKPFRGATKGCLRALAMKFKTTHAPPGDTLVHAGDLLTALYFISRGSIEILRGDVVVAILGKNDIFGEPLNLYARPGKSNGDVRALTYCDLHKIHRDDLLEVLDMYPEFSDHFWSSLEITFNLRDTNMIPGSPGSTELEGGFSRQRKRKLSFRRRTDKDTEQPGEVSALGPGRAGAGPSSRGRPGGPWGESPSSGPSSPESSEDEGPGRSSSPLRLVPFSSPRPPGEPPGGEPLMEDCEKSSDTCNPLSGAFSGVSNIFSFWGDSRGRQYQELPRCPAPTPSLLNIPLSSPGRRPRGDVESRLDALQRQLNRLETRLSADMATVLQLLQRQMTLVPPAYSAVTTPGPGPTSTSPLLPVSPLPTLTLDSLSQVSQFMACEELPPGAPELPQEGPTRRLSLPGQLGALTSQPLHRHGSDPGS
row,SMILES,"hERG current change (%, negative = inhibition) at 1uM [%]"
1,Cc1cc(/C=C2\NC(=O)NC2=O)c(C)n1-c1ccc(N2CCOCC2)cc1,10.3
2,CSc1cc(CS(=O)(=O)c2ccccc2)nc(-c2ccccc2)n1,4.78
3,CCOC(=O)C(c1ccccc1)C(Nc1ccc(Cl)c(Cl)c1)c1ccccn1 (stereo not shown),10.2
4,CC(C)C(=O)Nc1cccc(C(=O)NCCc2ccc(S(N)(=O)=O)cc2)c1,8.66
5,O=C1C=C(O)CC(c2ccco2)C1 (stereo not shown),-0.634
6,COc1ccccc1CNC(=O)C(NC(=O)C1CCCCC1)C(C)C (stereo not shown),13.1
7,Cc1cccc(Cn2c(N(C)CCO)nc3c2c(=O)[nH]c(=O)n3C)c1,4.02
8,COc1ccc(N2CCN(C(=O)CNC(=O)Cc3ccc(Cl)cc3)CC2)cc1,12.2
9,COc1ccc(OC)c(CNC(=O)C2CCCN(c3nc4ccccc4o3)C2)c1 (stereo not shown),-1.94
10,CC(C)Oc1cccc(C(=O)NC(=S)Nc2ccc3c4c(cccc24)CC3)c1,7.42
11,O=C(NCC1COCCO1)c1ccc2nc(Cc3cccc(Cl)c3)oc2c1 (stereo not shown),13.1
12,Cc1ccc(OCn2c(=O)sc3ccccc32)cc1,7.18
13,O=C(C1CCN(S(=O)(=O)c2cccc([N+](=O)[O-])c2)CC1)N1CCOCC1,10
14,Cc1ccc(-c2nnc(N3CCN(C(=O)COc4ccccc4)CC3)c3ccccc23)cc1,13.8
15,CCN(CC)C(=O)Nc1ccc(Br)cc1,-1.03
16,Cl.O=C(CN1CCC(NC(=O)c2ccccc2F)CC1)Nc1ccc2c(c1)OCCO2,13.1
17,CCN(C(=O)C1=COCCO1)c1nc2c(C)cccc2s1,0.721
18,COc1ccc(C(=O)CC(=O)C(=O)Nc2ccc(C)c(Cl)c2)cc1,14.4
19,CC(C)Oc1ccc(C(=O)Nc2ccccc2N2CCOCC2)cc1,2.01
20,COc1cc(CN2CCC(n3nccc3NC(=O)CCCc3ccccc3)CC2)ccc1O,-5.54
21,COCCNCCCCOc1ccc(Br)cc1C.O=C(O)C(=O)O,-12.5
22,CCC(=O)Nc1sc2c(c1C(N)=O)CCN(Cc1ccccc1)C2.Cl,0.596

row,SMILES,"hERG current change (%, negative = inhibition) at 1uM [%]"
1,COc1ccc(CCN(C)c2ccc(S(=O)(=O)N3CCCC3)cc2[N+](=O)[O-])cc1OC,11.8
2,CCCCN(CCCC)S(=O)(=O)c1ccc2oc(C(=O)N3CCOCC3)c(C)c2c1,-0.622
3,Cc1ccccc1OCC(=O)N=Nc1c(O)n(C)c2ccccc12,-1.91
4,COc1ccc(C(C(=O)NC2CCCC2)N(C(=O)c2ccco2)c2ccc(OC)c(OC)c2)cc1 (stereo not shown),8.34
5,O=C(NNC(=S)Nc1ccc(Br)cc1Cl)c1ccncc1,7.19
6,O=C(CN1CC(c2ccccc2)CC1=O)OCc1cccc(Br)c1 (stereo not shown),16.3
7,Cc1c(C(=O)NNC(=S)Nc2ccc(S(N)(=O)=O)cc2)oc2ccccc12,18.2
8,CCC(=O)N(Cc1cc(=O)[nH]c2ccccc12)c1ccccc1,8.16
9,COC(=O)C1=C(c2cccc(OC)c2OC)C[C@@H]2CC[C@H]1N2C(=O)NCCO,19.5
10,O=P(CCN1CCCCC1)(c1ccccc1)c1ccccc1,11.1
11,CCOc1ccc(OCc2ccc(C(=O)NN)o2)cc1,9.4
12,CS(=O)(=O)NCc1nnc2n1-c1ccc(Cl)cc1C(c1ccccc1)=NC2,7.22
13,Cc1nn(-c2ccccn2)c2c1C(c1ccncc1)C1=C(CC(C)(C)CC1=O)N2 (stereo not shown),-4.81
14,COc1ccc(C2=NOC(COc3ccc4c(C)cc(=O)oc4c3)C2)c(OC)c1 (stereo not shown),3.24
15,CC(=O)c1cccc(NC(=O)c2ccc(S(=O)(=O)N3CCCC3)cc2)c1,13.4
16,CCNc1ccc(C(=O)O)cc1N,9.47
17,FC(F)(F)c1cnc(NNC(=S)Nc2ccc(Cl)cc2)c(Cl)c1,11.4
18,C/C(=N/NS(=O)(=O)c1ccc(Br)cc1)c1ccc(NC(=O)c2ccc(C)o2)cc1,8.78
19,CCCN(CCC)CC(O)Cn1cc(/C=C/C(=O)c2cccs2)c2ccccc21 (stereo not shown),12.3
20,CC(C)c1ccc(NC2CCCN(C(=O)CCCn3cncn3)C2)cc1 (stereo not shown),-0.211
21,O=C(NCCc1ccccc1)C1CCN(S(=O)(=O)N2CCCCC2)CC1,10.5
